{"source": "the supplement of paper PMC4723716", "note": "The full ranking holds about 3,600 compounds; the median of “viability index relative to DMSO control” is about 0.81, and the lowest 2% start at about 0.13. The list shows a part of the results.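 Note: 384-well serum-free SaLSSA: MitoTracker Red CMXRos staining with saponin lysis, high-content imaging, treated-well particle count divided by plate-mean count of DMSO wells.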", "data": [{"tested_on": "Plasmodium falciparum NF54 stage V gametocytes", "test": "viability index relative to DMSO control (fraction); higher = less gametocyte killing", "conditions": "1.25 µM, incubation time: 72 h", "values": [{"smiles": "O=C(NC1CC1)C1CCN(c2cccc3c2C(=O)N(Cc2cccc(C(F)(F)F)c2)C3=O)CC1", "viability index": 1.13}, {"smiles": "CC(C)CC(=O)OC1C(N2CCCCC2)c2c(ccc(C=CC(=O)N3CCCCC3)c2O)OC1(C)C", "note": "(stereo unspecified)", "viability index": 0.706}, {"smiles": "CCOC(=O)C1=C(N)N(c2cccc([N+](=O)[O-])c2)C2=C(C(=O)CC(C)(C)C2)C1c1ccc(Br)cc1", "note": "(stereo unspecified)", "viability index": 0.543}, {"smiles": "COc1cc(Nc2cncc(-c3ccncc3)n2)cc(OC)c1OC", "viability index": 0.524}, {"smiles": "Cc1cc(C)c2c(c1)c(-c1ccccc1)c(-c1ccccc1)n2CC(O)Cn1cnc(-c2ccccc2)c1-c1ccccc1", "note": "(stereo unspecified)", "viability index": 0.615}, {"smiles": "O=C(C1CC1)N1CCc2cc(Br)cc(S(=O)(=O)N3CCCCC3)c21", "viability index": 0.839}, {"smiles": "Clc1ccc(-c2c[n+](Cc3ccccc3Cl)c3n2CCC3)cc1", "viability index": 1.27}, {"smiles": "CC[n+]1ccccc1C=Cc1ccc(N(C)C)cc1", "viability index": 0.895}, {"smiles": "Cc1ccc2[nH]c(C)c(Br)c(=O)c2c1", "viability index": 0.869}, {"smiles": "CCNC1=C(C(=O)c2ccccc2)N(CC(=O)c2ccc(Br)cc2)S(=O)(=O)c2ccccc21", "viability index": 0.758}, {"smiles": "O=C(Nc1ccc(-n2cccn2)cc1)C1CCN(CC=Cc2ccccc2)CC1", "viability index": 0.635}, {"smiles": "O=C(COC(c1cccs1)c1cccnc1Cl)N1CCN(C(=O)Nc2ccccc2)CC1", "note": "(stereo unspecified)", "viability index": 0.869}, {"smiles": "COc1cc2nc(CN(C)C(C)c3cccs3)nc(N3CCCC3)c2cc1OC", "note": "(stereo unspecified)", "viability index": 0.804}, {"smiles": "O=C(Nn1c(SCc2cc(=O)n3ccccc3n2)nc2ccsc2c1=O)c1cccc(Br)c1", "viability index": 1.45}, {"smiles": "CC(C)(C)NC(=O)C(c1ccncc1)N(Cc1ccccc1Cl)C(=O)c1ccc(-c2ccccc2)[nH]1", "note": "(stereo unspecified)", "viability index": 0.921}, {"smiles": "Cc1ccc(NC(=O)c2ccc(NCCCN3CCCCCC3)c([N+](=O)[O-])c2)cc1F", "viability index": 1.51}, {"smiles": "CCCn1c(C=NNc2nc3ccccc3[nH]2)nc2ccccc21", "viability index": 0.456}, {"smiles": "Cc1nc([P+](c2ccccc2)(c2ccccc2)c2ccccc2)c(SCc2ccccc2)o1", "viability index": 0.203}, {"smiles": "O=C(c1cnsn1)N1CCCC(COc2cccc(CN3CCC(Cc4ccccc4)CC3)c2)C1", "note": "(stereo unspecified)", "viability index": 0.827}, {"smiles": "CC1CN(C2CC(=O)N(c3ccccc3)C2=O)CC(C)O1", "note": "(stereo unspecified)", "viability index": 1.03}, {"smiles": "OC(CNc1cccc2ccccc12)Cn1c2ccccc2c2ccccc21", "note": "(stereo unspecified)", "viability index": 0.842}, {"smiles": "c1ccc(CCCNc2ccnc3cc4ccccc4cc23)cc1", "viability index": 0.52}, {"smiles": "CC1=C(C(=O)OC(C)C)C(c2ccccc2F)C2=C(CC(c3ccc(Cl)cc3)CC2=O)N1", "note": "(stereo unspecified)", "viability index": 0.887}, {"smiles": "COc1cccc2c(C)cc(NCc3ccccc3Cl)nc12", "viability index": 0.724}, {"smiles": "CCc1ccc(NC(=O)C2c3ccccc3C(=O)N(CC(C)C)C2c2cccs2)cc1", "note": "(stereo unspecified)", "viability index": 0.309}, {"smiles": "Cc1ccc(NC(=O)N(CCN(C)C)Cc2cc3cc4c(cc3[nH]c2=O)OCCO4)cc1", "viability index": 1.02}, {"smiles": "Cc1cc(-c2ccc(O)c(CN3CCCCC3CO)c2)c2ccccc2n1", "note": "(stereo unspecified)", "viability index": 0.885}, {"smiles": "CN1CCN(NC=C2C(=O)N(c3nc4ccccc4s3)N=C2c2ccccc2)CC1", "viability index": 0.846}, {"smiles": "COCCSc1nc2sc3c(c2c(=O)n1-c1ccc(OC)cc1)CCN(C)C3", "viability index": 0.83}, {"smiles": "CN(C=CC1=[N+](C)c2ccc(Cl)cc2C1(C)C)c1ccccc1", "viability index": 0.83}, {"smiles": "Oc1ccc(Br)c(C(Nc2ccccn2)c2ccc3cccnc3c2O)c1", "note": "(stereo unspecified)", "viability index": 0.969}, {"smiles": "c1ccc(OCCOc2ccc(Nc3ccnc4cc5ccccc5cc34)cc2)cc1", "viability index": 0.527}, {"smiles": "Cc1ccc(OCCCCN2CCOCC2)c([N+](=O)[O-])c1", "viability index": 0.798}, {"smiles": "O=c1cc(NC2CCN(CCCc3ccccc3)CC2)c2cc(Cl)ccc2o1", "viability index": 0.638}, {"smiles": "COc1ccc(Nc2nc(NN=Cc3cccc([N+](=O)[O-])c3)nc(Nc3ccc([N+](=O)[O-])cc3)n2)cc1", "viability index": 0.66}, {"smiles": "CCCCNC(=O)CCCNC(=O)Cn1cnc2sc3c(c2c1=O)CCCC3", "viability index": 0.812}, {"smiles": "CC(C)NCC(O)Cn1c2ccc(Br)cc2c2cc(Br)ccc21", "note": "(stereo unspecified)", "viability index": 0.291}, {"smiles": "CCOC(=O)c1cnc2c(C)cccc2c1Nc1ccc(C(C)=O)cc1", "viability index": 1.08}, {"smiles": "CC(C)(C)c1ccc(C2CC3=Nc4ccccc4N(C(=O)c4ccccc4Cl)C(c4ccc(F)cc4)C3=C(O)C2)cc1", "note": "(stereo unspecified)", "viability index": 0.491}, {"smiles": "CCOC(=O)c1cnc2c(OC)cccc2c1Nc1cccc(C(F)(F)F)c1", "viability index": 0.601}, {"smiles": "c1ccc(C2=Nc3ccccc3C(c3ccccc3)(c3ccccc3)N2)cc1", "viability index": 0.75}, {"smiles": "COc1ccc(-c2nc3cc(Cc4ccc5[nH]c(-c6ccc(OC)cc6)nc5c4)ccc3[nH]2)cc1", "viability index": 0.807}, {"smiles": "CCCOC(=O)C1=C(C)NC2=C(C(=O)CC(c3ccc(OC)c(OC)c3)C2)C1c1ccccc1Br", "note": "(stereo unspecified)", "viability index": 0.456}, {"smiles": "CCCCOC(=O)C1=C(C)NC2=C(C(=O)CCC2)C1c1ccc(Cl)c(Cl)c1", "note": "(stereo unspecified)", "viability index": 0.721}, {"smiles": "CCC1=[N+](C)c2cccc3cccc(c23)N1C", "viability index": 0.685}, {"smiles": "Cc1ccc(N=Nc2nc3ccccc3n2C)c(C)c1", "viability index": 0.333}, {"smiles": "OC(CN1CCN(Cc2ccccc2)CC1)Cn1c2ccc(Br)cc2c2cc(Br)ccc21", "note": "(stereo unspecified)", "viability index": 0.279}, {"smiles": "CCCCn1c(NN=C2C(=O)Nc3ccccc32)nc2c1c(=O)[nH]c(=O)n2C", "viability index": 0.785}, {"smiles": "Clc1ccc2c(c1)c(-c1ccccc1)nc1nnnn12", "viability index": 1}, {"smiles": "COc1ccccc1N1C(=N)SC(=Cc2ccc(N(C)C)cc2)C1=O", "viability index": 0.908}, {"smiles": "CC(C)(C)c1ccc(O)c(CNC2CCCCC2)c1", "viability index": 0.534}, {"smiles": "COc1ccc(CCN2C(=S)NC3c4cccc(OC)c4OC2(C)C3C(=O)Nc2ccc(C)cc2C)cc1OC", "note": "(stereo unspecified)", "viability index": 0.378}, {"smiles": "Cc1ccc(N2C(N)=NC(N)=NC2(C)C)c(C)c1", "viability index": 1.15}, {"smiles": "CC(C)CN1C(=O)c2ccccc2C(C(=O)Nc2cc(F)ccc2F)C1c1cccs1", "note": "(stereo unspecified)", "viability index": 0.53}, {"smiles": "CC(=O)N(C1=C(N2CCCCCC2)C(=O)c2ccccc2C1=O)C1CCCCC1", "viability index": 0.74}, {"smiles": "OC(CN1CCN(Cc2ccccc2)CC1)Cn1c2ccc(I)cc2c2cc(I)ccc21", "note": "(stereo unspecified)", "viability index": 0.442}]}]}
